According to PMC4335499:
Results are given in words; binding and its absence hold for the method and conditions named. Some binding calls cover weakened binding; strength is not graded here.

Tests used:
Assay in all cases: two-hybrid; Pab1/PABP1 constructs fused to the Gal4 DNA-binding domain (pOBD2), eIF4G fragments fused to the Gal4 activation domain (pOAD); yeast strain PJ694a; HIS3 reporter; cells spotted in a dilution series on synthetic complete plates lacking leucine and tryptophan, with or without histidine, 30°C, three days
[1] = biological target: Pab1 RRM2 (amino acids 123-204) D138T (S. cerevisiae) (UniProt P04147)
[2] = biological target: Pab1 RRM2 (amino acids 123-204) A199E (S. cerevisiae) (UniProt P04147)
[3] = biological target: Pab1 RRM2 (amino acids 123-204) Y197N (S. cerevisiae) (UniProt P04147)
[4] = biological target: Pab1 RRM2 (amino acids 123-204) L186M (S. cerevisiae) (UniProt P04147)
[5] = biological target: Pab1 RRM2 (amino acids 123-204) L153V (S. cerevisiae) (UniProt P04147)
[6] = biological target: Pab1 RRM2 (amino acids 123-204) E181R (S. cerevisiae) (UniProt P04147)
[7] = biological target: Pab1 RRM2 (amino acids 123-204) D184E (S. cerevisiae) (UniProt P04147)
[8] = biological target: Pab1 RRM2 (amino acids 123-204) [G177E, L186M] (S. cerevisiae) (UniProt P04147)
[9] = biological target: Pab1 RRM2 (amino acids 123-204) A185K (S. cerevisiae) (UniProt P04147)
[10] = biological target: Pab1, full length (amino acids 1-578 as printed) (S. cerevisiae) (UniProt P04147)
[11] = biological target: Pab1 RRM2 (amino acids 123-204) K140A (S. cerevisiae) (UniProt P04147)
[12] = biological target: Pab1 RRM2 (amino acids 123-204) A141D (S. cerevisiae) (UniProt P04147)
[13] = biological target: Pab1 amino acids 1-204 (RRM1-RRM2) (S. cerevisiae) (UniProt P04147)
[14] = biological target: Pab1 RRM2 (amino acids 123-204) A158E (S. cerevisiae) (UniProt P04147)
[15] = biological target: Pab1 RRM2 (amino acids 123-204) [D184E, A185K, L186M] (S. cerevisiae) (UniProt P04147)

B1: yeast eIF4G2 N-terminus (amino acids 1-341) (domain or fragment, UniProt P39936 1-341)
chain: MTDQRGPPPPHPQQANGYKKFPPHDNQYSGANNSQPNNHYNENLYSAREPHNNKQYQSKNGKYGTNKYNNRNNSQGNAQYYNNRFNNGYRLNNNDYNPAMLPGMQWPANYYAPQMYYIPQQMVPVASPPYTHQPLNTNPEPPSTPKTTKIEITTKTGERLNLKKFHEEKKASKGEEKNDGVEQKSKSGTPFEKEATPVLPANEAVKDTLTETSNEKSTSEAENTKRLFLEQVRLRKAAMERKKNGLISETEKKQETSNHDNTDTTKPNSVIESEPIKEAPKPTGEANEVVIDGKSGASVKTPQHVTGSVTKSVTFNEPENESSSQDVDELVKDDDTTEISD
- binding [1]: binds
- binding [2]: binds
- binding [3]: binds
- binding [4]: no binding
- binding [5]: binds
- binding [6]: no binding
- binding [7]: binds
- binding [8]: binds
- binding [9]: no binding
- binding [10]: no binding
- binding [11]: binds
- binding [12]: binds
- binding [13]: no binding
- binding [14]: binds
- binding [15]: no binding
